# No constants are given. Whether binding was seen depends on the method and setting. Binding seen in cells or lysates may run through a third protein. Some results given as binding are weak or reduced against the parent protein; the word gives no strength.
# The chains behind the UniProt entries cited, without tags or fusion partners. Residues count along the entry.
# UniProt Q03265, residues 44-553: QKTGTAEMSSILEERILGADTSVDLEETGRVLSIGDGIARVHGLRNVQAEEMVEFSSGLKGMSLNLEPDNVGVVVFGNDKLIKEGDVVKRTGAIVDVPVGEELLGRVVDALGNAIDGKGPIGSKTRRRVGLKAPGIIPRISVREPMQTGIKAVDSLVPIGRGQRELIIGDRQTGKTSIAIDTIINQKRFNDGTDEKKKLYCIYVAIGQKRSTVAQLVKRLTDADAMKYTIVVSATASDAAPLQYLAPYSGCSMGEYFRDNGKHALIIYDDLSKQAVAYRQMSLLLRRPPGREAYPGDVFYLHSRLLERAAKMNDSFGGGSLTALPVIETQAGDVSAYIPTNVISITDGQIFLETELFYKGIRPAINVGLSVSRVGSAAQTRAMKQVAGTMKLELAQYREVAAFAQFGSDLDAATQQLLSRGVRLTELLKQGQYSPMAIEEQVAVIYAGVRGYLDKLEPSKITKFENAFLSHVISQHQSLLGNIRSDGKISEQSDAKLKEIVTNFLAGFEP
# UniProt Q9D6J5, residues 29-186: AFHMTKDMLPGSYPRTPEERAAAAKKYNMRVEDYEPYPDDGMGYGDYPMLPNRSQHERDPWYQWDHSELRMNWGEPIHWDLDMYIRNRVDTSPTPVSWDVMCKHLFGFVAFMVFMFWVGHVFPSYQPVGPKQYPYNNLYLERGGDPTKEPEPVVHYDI
# Molecular target: T1, regulator of G-protein signaling 12 (RGS12) (mouse (endogenous in mouse chondrocytes)) (UniProt Q8CGE9)
# T1 sequence: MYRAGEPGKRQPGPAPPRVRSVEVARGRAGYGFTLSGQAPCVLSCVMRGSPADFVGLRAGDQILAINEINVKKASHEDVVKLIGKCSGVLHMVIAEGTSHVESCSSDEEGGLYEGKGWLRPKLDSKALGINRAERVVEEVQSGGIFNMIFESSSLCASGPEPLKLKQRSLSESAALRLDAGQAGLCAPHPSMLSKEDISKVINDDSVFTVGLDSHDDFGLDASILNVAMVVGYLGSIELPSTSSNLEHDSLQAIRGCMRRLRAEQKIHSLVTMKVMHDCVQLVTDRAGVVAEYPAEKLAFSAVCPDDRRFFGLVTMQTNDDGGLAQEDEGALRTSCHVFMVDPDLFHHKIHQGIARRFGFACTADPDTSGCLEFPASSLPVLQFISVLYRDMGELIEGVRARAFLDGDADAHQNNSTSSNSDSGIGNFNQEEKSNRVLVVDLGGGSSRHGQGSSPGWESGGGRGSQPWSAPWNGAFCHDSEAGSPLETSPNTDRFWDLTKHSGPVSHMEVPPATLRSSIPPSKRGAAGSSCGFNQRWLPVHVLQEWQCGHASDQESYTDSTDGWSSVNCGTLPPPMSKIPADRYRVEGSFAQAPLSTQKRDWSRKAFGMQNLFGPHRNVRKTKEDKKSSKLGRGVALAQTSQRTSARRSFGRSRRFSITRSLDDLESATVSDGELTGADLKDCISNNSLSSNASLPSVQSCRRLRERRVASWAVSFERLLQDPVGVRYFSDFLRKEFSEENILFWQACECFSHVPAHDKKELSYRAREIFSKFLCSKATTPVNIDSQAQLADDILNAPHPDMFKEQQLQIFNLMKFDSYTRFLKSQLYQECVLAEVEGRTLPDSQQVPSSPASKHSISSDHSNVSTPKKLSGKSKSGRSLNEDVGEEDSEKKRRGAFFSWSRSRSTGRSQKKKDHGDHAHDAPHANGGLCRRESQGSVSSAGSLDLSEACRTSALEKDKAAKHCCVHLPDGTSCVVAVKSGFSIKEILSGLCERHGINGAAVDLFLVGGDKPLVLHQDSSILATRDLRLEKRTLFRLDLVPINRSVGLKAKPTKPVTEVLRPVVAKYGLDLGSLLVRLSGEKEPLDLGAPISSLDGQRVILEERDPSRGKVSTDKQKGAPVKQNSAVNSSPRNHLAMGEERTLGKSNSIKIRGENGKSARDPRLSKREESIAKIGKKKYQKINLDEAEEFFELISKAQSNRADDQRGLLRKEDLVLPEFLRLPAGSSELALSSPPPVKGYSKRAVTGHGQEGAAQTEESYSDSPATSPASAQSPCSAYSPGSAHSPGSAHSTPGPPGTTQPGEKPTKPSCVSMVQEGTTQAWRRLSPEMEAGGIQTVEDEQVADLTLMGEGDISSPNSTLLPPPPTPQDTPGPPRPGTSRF
# Test: co-IP; cell lysates of mouse chondrocytes (NP-40 buffer) incubated with anti-RGS12 or control IgG, protein A/G beads; bound protein blotted with the OXPHOS antibodies
row,Substance,binding
1,ATP Synthase F1 Subunit Alpha (ATP5A) (from UniProt Q03265 44-553),binds
2,MTCO1 (from UniProt P00397 1-514),no binding
3,NDUFB8 (from UniProt Q9D6J5 29-186),no binding

# From article PMC7459111
